Data from paper PMC12136788.
The other results are listed elsewhere or left out.

B1: chr5:138658563:138658564:+_ENSG00000015479_ENST00000502499|hu_hu|motif|central (ssRNA)
RNA: GGGAGUUCUACAGUCCGACGAUCAUCUUUUUUCACAGCUUUAUCUGAUGGUUCCUUUUUCCCAUCAGAAGCCACAUCACCGGAAUUAGCAAGAUCGGUCUCGUCUCCCACUGAACUGCCACUUUCUAGCAGUGCUGCUGCUUCCAACAGAGGAUUGAGCAUCA
B2: chr7:65705475:65705476:+_ENSG00000169902_ENST00000304842|hu_hu|hu_hu_hu_mus_True|38_48 (ssRNA)
RNA: GGGAGUUCUACAGUCCGACGAUCUCUAUUCGGUGAUGGCACUCCAUGGCAUGCUGGCCCAGGUAAAACACGGUCACAGAACUAAUCACCAGACAUGCCAAUAGUAAGUUCUGCUUCAGCUUCCCAACCAUCUUGAUGUGGUUACAACAGAGGAUUGAGCAUCA
B3: chr5:37680062:37680063:+_ENSMUSG00000029121_ENSMUST00000031004|mus_mus|motif|central (ssRNA)
RNA: GGGAGUUCUACAGUCCGACGAUCUUUGGGUGUAGCUGGCACCUCGUACACAGGCCCAUCGUACAUGCCCCUGGAAACACGGUGCAACCCGAAAACCUUGCUUCUGAUCCUGACACGCUGGUAGAGAUGCUCUGGGAAUGGCUUCAACAGAGGAUUGAGCAUCA
B4: chr22:19452774:19452775:-_ENSG00000070010_ENST00000399523|hu_hu|hu_hu_hu_mus_False|18_28 (ssRNA)
RNA: GGGAGUUCUACAGUCCGACGAUCCUUCUCAUUGUAGUUGAUAGCAAUCACAUCUCCAGUCGUCAGACAGGCGAAGUUUCUCAAUGCAUUUUCUAAUACCGCUUUAGGGUUGGUGAUGUCCAGGAAGUCUGGGCUCUGAGGCUGCAACAGAGGAUUGAGCAUCA
B5: chr4:95690885:95690886:+_ENSMUSG00000028572_ENSMUST00000156910|mus_mus|mus_mus_mus_hu_False|18_68 (ssRNA)
RNA: GGGAGUUCUACAGUCCGACGAUCUUUAGAAAAUGUUAAAUACCAUGCUAAAAUAUUUUCAAAGGCUAGUCUUAUUUUACCAGAAGUCACAGGCAAGCAGACACUACAAGAAUAUAUAAAUACAAACCUCAACAAUAUAACUGUCAACAGAGGAUUGAGCAUCA
B6: chr4:6882955:6882956:+_ENSG00000170871_ENST00000425103|hu_mus|FALSE|FALSE (ssRNA)
RNA: GGGAGUUCUACAGUCCGACGAUCUGGCGACACAGCCGCCAGAGGGAGGCCUGCAGCUGCGAUGCAGAAGCGGGACGCACUAGGACAAGCACAUGCACACCCAUUCCUCAUGGACAGCACAGUCUAGUCUACUUCAGAGAGCAACAACAGAGGAUUGAGCAUCA
B7: 99250274_99250394_344_CDS_ENSMUSG00000019761_ENSMUST00000103131|mouse|control|control (ssRNA)
RNA: GGGAGUUCUACAGUCCGACGAUCUCCGAAUCCACCACCGCCAAAGCCUCCUCCAUAGCUACCGCCACCAAAGCUGCCUCCACCGAAGCUGCCACCUCCACCGAAGCUGCCACCCCCAAAACUGCUACCUCCAUAGCCUCCCCCCAACAGAGGAUUGAGCAUCA
B8: chrX:100667754:100667755:+_ENSG00000126945_ENST00000316594|hu_hu|motif|central (ssRNA)
RNA: GGGAGUUCUACAGUCCGACGAUCUCCGUAUCUAUGAUCAGACAUUCCUGAAAAACAGUAAUUGAGGUCUCUUCCAAAUCGGUCAGACCCAAAGCCAUAUCCAUCAUUAUAGCCACCAUAGUCAUCAUAGCCUCCAUACCCUCCCAACAGAGGAUUGAGCAUCA
B9: chr1:100342015:100342016:+_ENSG00000162688_ENST00000361915|hu_mus|FALSE|FALSE (ssRNA)
RNA: GGGAGUUCUACAGUCCGACGAUCGGCUUCCUCUGCGGAUAAGGCCAUUUCUCCAAAGGGGAAAGUAAAAUACCUGGUAACUAAAGGAUACUUCCUGGUGACAGGUCCUAGUUUAGGGCCAUGGCCUGCCAGUCGUUCAUAAAACAACAGAGGAUUGAGCAUCA
B10: chr16:94664741:94664742:+_ENSMUSG00000040785_ENSMUST00000117648|mus_hu|mus_mus_mus_hu_False|98_108 (ssRNA)
RNA: GGGAGUUCUACAGUCCGACGAUCUGGCAUGGAUCUUUGCAUUGGAUAUUCAGGAGAAAGGCUGGCCAAGGGUGUAUAUAUGCUGGUGUACUGGGGCAAACCUGGUAACACGUUUAUGUAUGCUGGCGGUGUCUGGGUGAUAUCCAACAGAGGAUUGAGCAUCA
B11: chr2:202488911:202488912:-_ENSG00000155755_ENST00000286196|hu_mus|hu_hu_hu_mus_False|38_68 (ssRNA)
RNA: GGGAGUUCUACAGUCCGACGAUCAUUGAAACAUUUUUCAUAAUCUCCAGUAGCAUUUCAGCAUUAUUAAUCAAAAACUCAAUUGUAAAUACAUGUAUAUACAUCUUAUACACUUAAAAACACGAGUGGGGAGCGCAGGCGCCACAACAGAGGAUUGAGCAUCA
B12: chr11:29608675:29608676:+_ENSMUSG00000020458_ENSMUST00000102843|mus_mus|motif|central (ssRNA)
RNA: GGGAGUUCUACAGUCCGACGAUCCUCUGUAUCAGAAGGAAGUUUUUCCUCUGCUUCUUUCGUAAGUACUUUGGGUUUAACGGUGUUGCCCAUUUCUAUUUGAGAUUCCAAAGCAGAAACAUUUGGAAGCAAUAAGGGCACCUUCAACAGAGGAUUGAGCAUCA
B13: 53135465_53138077_820_CDS_ENSG00000012660_ENST00000304434|human|control|control (ssRNA)
RNA: GGGAGUUCUACAGUCCGACGAUCGAAUGUGCACGGCCAGAUGACCCCGCAGCUGGUCUGGAUGAUUGUCAGCACAAACUGAAGCAGCUGCCCCUGAGUGAUGUACUUCUUCCACCAGAGGUAUGGACGCAUGGAAGGGACUGACAACAGAGGAUUGAGCAUCA
B14: chr8:11667275:11667276:+_ENSG00000079459_ENST00000525900|hu_hu|FALSE|FALSE (ssRNA)
RNA: GGGAGUUCUACAGUCCGACGAUCAUCCUUCUCCUUGCUCUCCAUGAACCGCCAGUCUGGUUGGUAAAGGAAAGAGUGAAAGUUGUGUAACAGCGGGACCUUCUUUUCCACACUGAUGGUCAUGUCAUCUUCCAGUGUGUCCAGCAACAGAGGAUUGAGCAUCA

Each binder was assayed against T1, UNK ZnF1-3 (human, UniProt Q9C0B0 31-174) (assay: nsRBNS (natural sequence RNA bind-n-seq); RBNS binding buffer (assumed for nsRBNS): 25 mM Tris pH 7.5, 150 mM KCl, 3 mM MgCl2, 0.01% Triton X-100, 500 ug/ml BSA, 20 U/ml SUPERase-In, 4 C; UNK is unkempt and MSI1 is Musashi-1; names of the RNAs are library labels; protein concentration not given here; high values mean tight binding).
T1 sequence: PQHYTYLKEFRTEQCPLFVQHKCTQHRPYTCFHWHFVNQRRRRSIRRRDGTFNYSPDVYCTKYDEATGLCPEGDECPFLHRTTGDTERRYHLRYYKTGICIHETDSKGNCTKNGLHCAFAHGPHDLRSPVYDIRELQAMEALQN

Row | Binder | binding signal
1 | B1 | 0.511 enrichment R
2 | B2 | 0.544 enrichment R
3 | B3 | 0.92 enrichment R
4 | B4 | 0.772 enrichment R
5 | B5 | 1.37 enrichment R
6 | B6 | 1.34 enrichment R
7 | B7 | 1.69 enrichment R
8 | B8 | 0.999 enrichment R
9 | B9 | 0.727 enrichment R
10 | B10 | 0.977 enrichment R
11 | B11 | 1.29 enrichment R
12 | B12 | 0.539 enrichment R
13 | B13 | 1.42 enrichment R
14 | B14 | 0.692 enrichment R
